In the supplement of paper PMC10126150:
Values marked as one replicate rest on one cluster of the flow cell; about a third of the high ones do not repeat.

System: ATP
Assay: switch fluorescence ratio, 500 uM ATP over buffer (Cy3 cluster intensity, sum of 5 cycles each) (fold (ratio)); higher = stronger signal-on switching upon ATP binding; sequences stand for … in TCGTCGGCAGCGTCAGATGTGTATAAGAGACAGTTTTTTTTTTTTTTTTTTTTTTTTT…TC
Conditions: aptamer strand: ATP DNA aptamer (quencher-CACCTGGGGGAGTATTGCGGAGGAAGG + anchor), 100 nM annealed; ATP concentration: 500 uM; one replicate
Procedure, shortened: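 Between each of five buffer/ATP cycles, the flow-cell was stripped with NaOH and re-annealed. Each cycle imaged Cy3-labelled switching-strand clusters, annealed to 100 nM quencher-labelled ATP aptamer on a modified Illumina MiSeq flow-cell, first in selection buffer and then after 15 min with 500 uM ATP at 22 °C. The fluorescence ratio is summed target-cycle over summed buffer-cycle Cy3 intensity per cluster, averaged per switch-domain sequence, with clusters outside 100-1000 RFU excluded.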
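Also: ATP exposure 15 min at 22 °C before imaging.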

Sequence | switch fluorescence ratio
CCGGCCACGG | 1.02
GCGTAGTTTG | 0.991
CTTTTACTTG | 1.02
GACGGACCAC | 1.36
GATGGGATTT | 1.02
AATAATGTCA | 1
TTTACGCTTA | 1.04
CGAGGGCTC | 1.02
ACTTCTCCAC | 1.31
GAGTATGGG | 1.01
ATTTTAG | 0.988
GCTAGCGACT | 1.03
AGTCAGTTAC | 1.08
GAAGTGCTCC | 1.21
CTACCCTTGA | 1.04
TTACGGCGGA | 1.05
TGATGCGGG | 0.967
AGGACTAGAC | 1.07
ATGGGCGAGG | 0.979
CAATGGTAGA | 1.01
CGAAGGAGTT | 0.969
GGACAAAGTG | 0.996
GATGTGAAAA | 1.02
CGGAACGTGT | 0.986
CCCCACGTAT | 1.31
ATCTACCAGT | 1.16

Sequence | switch fluorescence ratio
ATTTTAGCTA | 1.05
TATGTTATAG | 1.03
CTGGCTTATA | 0.996
TGGGGTAACG | 0.974
ATGCCGGCTA | 1.01
GGTTGAATAT | 1.03
GCTCTAACTA | 1.05
GACGCTAGA | 3.7
AAGTTGATAG | 1.01
AGATGGTAC | 1.07
CGATTATTGG | 1.01
CGCAGATAGT | 1.26
GCCTTTAACC | 1.04
CTTCCCAGAG | 1.39
TACAACGATT | 0.998
AGCTCTTGTG | 0.99
ATTCTTCA | 1.06
CGCGGCATAT | 1.72
TTTTCCATAC | 1.22
TGGTATTGAC | 1.05
TGCGGTCGT | 0.987
CGAGTGAGGA | 1.01
AGTGATTGTA | 0.967
TTCGGACCCT | 1.19
CGTCACATCG | 1.02
GCGCGCCGTG | 0.999

Sequence | switch fluorescence ratio
GCAAGACTTT | 1.59
GACACGACGG | 1.03
CGGTTGTATT | 0.978
GGCCGCATTT | 1.54
TAACCGCAGG | 0.998
GGGAATTCCC | 0.974
GCGGTCTAAT | 1.06
ATGTGCGC | 0.962
CATTTTCTTA | 0.992
ATGGTTCAGC | 1.03
CATGCACCCT | 1.08
ATAGCGCGTC | 1.02
ACTGATGGTC | 0.989
TATGTGTTAA | 1.01
TAGGCCCGCC | 0.964
CTCGTCGGCG | 0.988
ACACATCTTA | 1.02
TTACAAAGT | 0.976
AGTGGAGATG | 0.973
CGGTTAGTGC | 1.02
TAGGACCACG | 1.03
GCATTAAATT | 0.961
AAGACTTGAC | 1.03
AGCACGTCGG | 1.01
TCTAAGTATA | 0.972
TTCATTTCC | 1.12

Sequence | switch fluorescence ratio
ATTGATTTA | 1.01
GTAACTGTAC | 1.58
ACTGGGTGGG | 1.07
AATTGTCACC | 0.997
TTCATATAAT | 1.01
AAGAATGGAC | 1.02
CTTTTCATCC | 0.998
ATTGACGTAG | 0.943
TTCTAACA | 1.06
ACGGAAAATA | 1.03
CTTAGTCTCG | 1.03
GCAGCACTCG | 1.31
GTGATCACAG | 0.971
TTCAGATGCT | 1.01
TCTTGCCCTC | 1.02
GGCCTAGCTT | 0.999
ACGTTCACAC | 1.66
CGGGTGATCA | 1.03
GGCAGTACTT | 1.42
ATTGAAGCCG | 0.941
ACATTAAAGG | 0.999
CATGTTACGT | 1.08
CCTTCGTATC | 4.12
TGACACATTG | 1
TTTGGTGCTC | 0.987
ACTTCTCCCA | 1.26

Sequence | switch fluorescence ratio
CCGAAAGGTG | 2.52
CCAGACTCAG | 1
CGGCCTAAGT | 1.02
CGCTCGGGGA | 1.03
ACGCGTAGAA | 1.01
CCCCTCATAT | 1.19
GAATTCTGCC | 1.01
TTGTTCCGAA | 0.976
GTTCTAGAAA | 0.986
TATTAATAAT | 1.01
ACTTTCGGAC | 2.43
GAAATAGGGG | 0.97
CGGAGGCCGA | 0.922
ATTTCTCGCA | 1.29
TATCGGTTTG | 1
GCCGCTGTCA | 0.991
ATTCAGATCC | 0.984
GGATTCGACA | 0.993
GACGAATCCC | 1.1
GGCCGAATCG | 1.01
TTATACTATA | 1.05
GAGGGGAGTC | 0.989
GGTTATTTCA | 1.21
CGGGGGGGT | 0.995
CAAGCGCCGA | 0.99
AAGGTCGCCG | 1

Sequence | switch fluorescence ratio
GCATAGGTGG | 1.03
GGGAATATCA | 0.949
AGGAATTGGG | 0.964
CGCGGTTCGT | 0.985
TGAGTCGGTT | 0.959
AATTAATAAT | 0.975
CTTAATCCCG | 1.01
CATGTCCATA | 0.994
CGTTCCGTAT | 1.02
ACGACCTCGT | 1.02
GCGGACAAAA | 0.971
GGCACTTAGT | 1.02
TAGCCTTTCA | 1
AACGGTCAGC | 1
CGTGTGCTTG | 0.986
ATGAGAGTT | 1.02
CACCCTGCAT | 1.23
CATTTTGTCA | 1.06
ATGCCAAAGC | 0.99
CTTAATTTCA | 1
AAGAGGGCTA | 1.02
TTTTCAGATA | 1.02
ACGCTCACAC | 1.6
